# Measured values reported in the supplement of paper PMC8728848.
# The list shows a part of the results.
# B1: SEX4 (Arabidopsis thaliana), Q944A8 (protein)
# chain: TQAMGAVLTYRHELGMNYNFIRPDLIVGSCLQTPEDVDKLRKIGVKTIFCLQQDPDLEYFGVDISSIQAYAKKYSDIQHIRCEIRDFDAFDLRMRLPAVVGTLYKAVKRNGGVTYVHCTAGMGRAPAVALTYMFWVQGYKLMEAHKLLMSKRSCFPKLDAIRNATIDILTGLKRKTVTLTLKDKGFSRVEISGLDIGWGQRIPLTLGKGTGFWILKRELPEGQFEYKYIIDGEWTHNEAEPFIGPNKDGHTNNYAKVVDDPTSVDGTTRERLSSEDPELLEEERSKLIQFLETCSEAEV
# Assays:
# Test in all cases: glycan array binding signal (z-score within array); higher = stronger binding
# Settings in all cases: glycan notation: IUPAC condensed, linker removed
# [1] = target: Fuc(a1-2)Gal
# Procedure, shortened: (§1)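 The binding signal is a Z-score computed within each array. Data were drawn from 3228 arrays in the Consortium for Functional Glycomics database, restricted to those with a known protein sequence. Scores were averaged over arrays of the same protein sequence at different concentrations or buffers, and over linkers, and negative values can be taken as non-binding.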
# [2] = target: Fuc(a1-2)Gal(b1-3)GalNAc
# Procedure, shortened: as §1
# [3] = target: Fuc(a1-2)Gal(b1-3)GalNAc(a1-3)[Fuc(a1-2)]Gal(b1-4)Glc
# Procedure, shortened: as §1
# [4] = target: Fuc(a1-2)Gal(b1-3)GalNAc(a1-3)[Fuc(a1-2)]Gal(b1-4)GlcNAc
# Procedure, shortened: as §1
# [5] = target: Fuc(a1-2)Gal(b1-3)GalNAc(b1-3)Gal
# Procedure, shortened: as §1
# [6] = target: Fuc(a1-2)Gal(b1-3)GalNAc(b1-3)Gal(a1-4)Gal(b1-4)Glc
# Procedure, shortened: as §1
# [7] = target: Fuc(a1-2)Gal(b1-3)GalNAc(b1-4)[Neu5Ac(a2-3)]Gal(b1-4)Glc
# Procedure, shortened: as §1
# [8] = target: Fuc(a1-2)Gal(b1-3)GlcNAc
# Procedure, shortened: as §1
# [9] = target: Fuc(a1-2)Gal(b1-3)GlcNAc(b1-2)Man(a1-3)[Fuc(a1-2)Gal(b1-3)GlcNAc(b1-2)Man(a1-6)]Man(b1-4)GlcNAc(b1-4)GlcNAc
# Procedure, shortened: as §1
# [10] = target: Fuc(a1-2)Gal(b1-3)GlcNAc(b1-2)Man(a1-3)[Fuc(a1-2)Gal(b1-3)GlcNAc(b1-2)Man(a1-6)]Man(b1-4)GlcNAc(b1-4)[Fuc(a1-6)]GlcNAc
# Procedure, shortened: as §1
# [11] = target: Fuc(a1-2)Gal(b1-3)GlcNAc(b1-3)Gal(b1-4)Glc
# Procedure, shortened: as §1
# [12] = target: Fuc(a1-2)Gal(b1-3)GlcNAc(b1-3)GalNAc
# Procedure, shortened: as §1
# [13] = target: Fuc(a1-2)Gal(b1-3)GlcNAc(b1-3)[Fuc(a1-3)[Gal(b1-4)]GlcNAc(b1-6)]Gal(b1-4)Glc
# Procedure, shortened: as §1
# [14] = target: Fuc(a1-2)Gal(b1-3)GlcNAc(b1-3)[Gal(b1-4)GlcNAc(b1-6)]Gal(b1-4)Glc
# Procedure, shortened: as §1
# [15] = target: Fuc(a1-2)Gal(b1-3)[Fuc(a1-4)]GlcNAc
# Procedure, shortened: as §1
# [16] = target: Fuc(a1-2)Gal(b1-3)[Fuc(a1-4)]GlcNAc(b1-2)Man(a1-3)[Fuc(a1-2)Gal(b1-3)[Fuc(a1-4)]GlcNAc(b1-2)Man(a1-6)]Man(b1-4)GlcNAc(b1-4)GlcNAc
# Procedure, shortened: as §1
# [17] = target: Fuc(a1-2)Gal(b1-3)[Fuc(a1-4)]GlcNAc(b1-3)[Fuc(a1-3)[Gal(b1-4)]GlcNAc(b1-6)]Gal(b1-4)Glc
# Procedure, shortened: as §1
# [18] = target: Fuc(a1-2)Gal(b1-3)[Fuc(a1-4)]GlcNAc(b1-3)[Gal(b1-4)GlcNAc(b1-6)]Gal(b1-4)Glc
# Procedure, shortened: as §1
# [19] = target: Fuc(a1-2)Gal(b1-4)Glc
# Procedure, shortened: as §1
# [20] = target: Fuc(a1-2)Gal(b1-4)Glc6S
# Procedure, shortened: as §1
# [21] = target: Fuc(a1-2)Gal(b1-4)GlcNAc
# Procedure, shortened: as §1
# [22] = target: Fuc(a1-2)Gal(b1-4)GlcNAc(b1-2)Man(a1-3)[Fuc(a1-2)Gal(b1-4)GlcNAc(b1-2)Man(a1-6)]Man(b1-4)GlcNAc(b1-4)GlcNAc
# Procedure, shortened: as §1
# [23] = target: Fuc(a1-2)Gal(b1-4)GlcNAc(b1-2)Man(a1-3)[Fuc(a1-2)Gal(b1-4)GlcNAc(b1-2)Man(a1-6)]Man(b1-4)GlcNAc(b1-4)[Fuc(a1-6)]GlcNAc
# Procedure, shortened: as §1
# [24] = target: Fuc(a1-2)Gal(b1-4)GlcNAc(b1-2)[Fuc(a1-2)Gal(b1-4)GlcNAc(b1-4)]Man(a1-3)[Fuc(a1-2)Gal(b1-4)GlcNAc(b1-2)Man(a1-6)]Man(b1-4)GlcNAc(b1-4)GlcNAc
# Procedure, shortened: as §1
# [25] = target: Fuc(a1-2)Gal(b1-4)GlcNAc(b1-3)Gal(b1-4)GlcNAc
# Procedure, shortened: as §1
# [26] = target: Fuc(a1-2)Gal(b1-4)GlcNAc(b1-3)Gal(b1-4)GlcNAc(b1-3)Gal(b1-4)GlcNAc
# Procedure, shortened: as §1
# [27] = target: Fuc(a1-2)Gal(b1-4)GlcNAc(b1-3)GalNAc
# Procedure, shortened: as §1
# [28] = target: Fuc(a1-2)Gal(b1-4)GlcNAc6S
# Procedure, shortened: as §1
# [29] = target: Fuc(a1-2)Gal(b1-4)[Fuc(a1-3)]GlcNAc
# Procedure, shortened: as §1
# [30] = target: Fuc(a1-2)Gal(b1-4)[Fuc(a1-3)]GlcNAc(b1-2)Man(a1-3)[Fuc(a1-2)Gal(b1-4)[Fuc(a1-3)]GlcNAc(b1-2)Man(a1-6)]Man(b1-4)GlcNAc(b1-4)GlcNAc
# Procedure, shortened: as §1
# [31] = target: Fuc(a1-2)Gal(b1-4)[Fuc(a1-3)]GlcNAc(b1-2)[Fuc(a1-2)Gal(b1-4)[Fuc(a1-3)]GlcNAc(b1-4)]Man(a1-3)[Fuc(a1-2)Gal(b1-4)[Fuc(a1-3)]GlcNAc(b1-2)Man(a1-6)]Man(b1-4)GlcNAc(b1-4)GlcNAc
# Procedure, shortened: as §1
# [32] = target: Fuc(a1-2)Gal(b1-4)[Fuc(a1-3)]GlcNAc(b1-3)Gal(b1-4)[Fuc(a1-3)]GlcNAc
# Procedure, shortened: as §1
# [33] = target: Fuc(a1-2)Gal(b1-4)[Fuc(a1-3)]GlcNAc(b1-3)Gal(b1-4)[Fuc(a1-3)]GlcNAc(b1-3)Gal(b1-4)[Fuc(a1-3)]GlcNAc
# Procedure, shortened: as §1
# [34] = target: Fuc(a1-2)Gal(b1-4)[Fuc(a1-3)]GlcNAc(b1-3)GalNAc
# Procedure, shortened: as §1
# [35] = target: Fuc(a1-2)Gal6S(b1-4)Glc
# Procedure, shortened: as §1
# [36] = target: Fuc(a1-2)Gal6S(b1-4)Glc6S
# Procedure, shortened: as §1
# [37] = target: Fuc(a1-2)Gal6S(b1-4)GlcNAc
# Procedure, shortened: as §1
# [38] = target: Fuc(a1-2)[Gal(a1-3)]Gal
# Procedure, shortened: as §1
# [39] = target: Fuc(a1-2)[Gal(a1-3)]Gal(b1-3)GlcNAc
# Procedure, shortened: as §1
# [40] = target: Fuc(a1-2)[Gal(a1-3)]Gal(b1-3)GlcNAc(b1-2)Man(a1-3)[Fuc(a1-2)[Gal(a1-3)]Gal(b1-3)GlcNAc(b1-2)Man(a1-6)]Man(b1-4)GlcNAc(b1-4)GlcNAc
# Procedure, shortened: as §1
# [41] = target: Fuc(a1-2)[Gal(a1-3)]Gal(b1-3)GlcNAc(b1-3)GalNAc
# Procedure, shortened: as §1
# [42] = target: Fuc(a1-2)[Gal(a1-3)]Gal(b1-4)Glc
# Procedure, shortened: as §1
# [43] = target: Fuc(a1-2)[Gal(a1-3)]Gal(b1-4)GlcNAc
# Procedure, shortened: as §1
# [44] = target: Fuc(a1-2)[Gal(a1-3)]Gal(b1-4)GlcNAc(b1-2)Man(a1-3)[Fuc(a1-2)[Gal(a1-3)]Gal(b1-4)GlcNAc(b1-2)Man(a1-6)]Man(b1-4)GlcNAc(b1-4)GlcNAc
# Procedure, shortened: as §1
# [45] = target: Fuc(a1-2)[Gal(a1-3)]Gal(b1-4)GlcNAc(b1-2)Man(a1-3)[Fuc(a1-2)[Gal(a1-3)]Gal(b1-4)GlcNAc(b1-2)Man(a1-6)]Man(b1-4)GlcNAc(b1-4)[Fuc(a1-6)]GlcNAc
# Procedure, shortened: as §1
binder,measurement,setting,value
B1,glycan array binding signal (z-score),[1],-0.521
same,glycan array binding signal (z-score),[2],-0.408
same,glycan array binding signal (z-score),[3],-0.19
same,glycan array binding signal (z-score),[4],-0.41
same,glycan array binding signal (z-score),[5],-0.291
same,glycan array binding signal (z-score),[6],0.173
same,glycan array binding signal (z-score),[7],0.024
same,glycan array binding signal (z-score),[8],-0.1
same,glycan array binding signal (z-score),[9],-0.14
same,glycan array binding signal (z-score),[10],-0.277
same,glycan array binding signal (z-score),[11],0.775
same,glycan array binding signal (z-score),[12],0.12
same,glycan array binding signal (z-score),[13],-0.488
same,glycan array binding signal (z-score),[14],-0.216
same,glycan array binding signal (z-score),[15],-0.43
same,glycan array binding signal (z-score),[16],1.54
same,glycan array binding signal (z-score),[17],-0.234
same,glycan array binding signal (z-score),[18],-0.056
same,glycan array binding signal (z-score),[19],-0.349
same,glycan array binding signal (z-score),[20],-0.195
same,glycan array binding signal (z-score),[21],-0.484
same,glycan array binding signal (z-score),[22],-0.243
same,glycan array binding signal (z-score),[23],0.464
same,glycan array binding signal (z-score),[24],3.41
same,glycan array binding signal (z-score),[25],-0.149
same,glycan array binding signal (z-score),[26],0.56
same,glycan array binding signal (z-score),[27],0.098
same,glycan array binding signal (z-score),[28],-0.299
same,glycan array binding signal (z-score),[29],0.072
same,glycan array binding signal (z-score),[30],0.135
same,glycan array binding signal (z-score),[31],0.194
same,glycan array binding signal (z-score),[32],-0.066
same,glycan array binding signal (z-score),[33],1.02
same,glycan array binding signal (z-score),[34],1.95
same,glycan array binding signal (z-score),[35],-0.478
same,glycan array binding signal (z-score),[36],-0.294
same,glycan array binding signal (z-score),[37],-0.376
same,glycan array binding signal (z-score),[38],-0.521
same,glycan array binding signal (z-score),[39],-0.101
same,glycan array binding signal (z-score),[40],-0.155
same,glycan array binding signal (z-score),[41],-0.268
same,glycan array binding signal (z-score),[42],-0.313
same,glycan array binding signal (z-score),[43],-0.424
same,glycan array binding signal (z-score),[44],0.624
same,glycan array binding signal (z-score),[45],-0.515
